Laboratory results as given in the RNAGym collection of RNA variant scans (doi:10.1093/nar/gkz1192).
The source gives no read counts; variants with many changes may rest on few reads.

B1: CPEB3 Ribozyme (parent)
chain: UAACAGGGGGCCACAGCAGAAGCGUUCACGUCGCAGCCCCUGUCAGAUUCUGGUGAAUCUGCGAAUUCUGCUGUAUAUCUC

Variants of: B1
Test: self-cleavage, relative activity (ratio to wild type); higher = more cleavage; in vitro, sequencing
Method in brief: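 After error-prone PCR and barcoding, CPEB3 ribozyme mutant libraries were transcribed with T7 RNA polymerase at 37°C for 5 hours, then given 15 min with DNase I before an EDTA stop, and they cleaved during both steps. Reverse transcription with template switching preceded Illumina sequencing. Relative activity divides a variant's cleaved/total read fraction by the unmutated ribozyme's. At least 5 reads were required per variant, and three batches were averaged.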
Work on UAACAGGGGGCCAUAGCAGAAGCGCUCUCGUAGCAGCCCCUGUCAGAAUCUGGUGAAUCUGCGAAUUCUGCUGUAUAUCUC [C14U U25C A28U C32A U48A] yielded a self-cleavage of 0.41. Work on UAACAGGGGGCCAUAGCAGAAGCGCUCACGUCGCAGCCCCUGUCAGAUUCUGGUGAAUCUGCGAGUUCUGCUGUUUAUCUC [C14U U25C A65G A75U] yielded a self-cleavage of 0.07. Variant UAACAGGGGGCCAUAGCAGAAGCGCUCACGUCGCAGCCCCUGUUAGAUUCUGGUGAAUCUGCGAAUUCUGCUCUAUAUCUC [C14U U25C C44U G73C] has a self-cleavage of 0.02. In the case of UAACAGGGGGCCAUAGCAGAAGCGCCCACGUCGCAGCCCCUGUCAGAUUCUGGUGAAUCAGCGAAUUCUGCUGUAUAUCUC [C14U U25C U26C U60A], the self-cleavage is reported as 0.26. In the case of UAACAGGGGGCCAUAGCAGAAGCGCUCACGACUCAGCCCCUGGCAUAUUCUGGUGAAUCUGCGAAUCCUGCUGUAUAUCUC [C14U U25C U31A G33U U43G G46U U67C], the self-cleavage is reported as 0.07. Work on UAACAGGGGGCCAUAGCAGAAGCGCUCACGUCGCAGCCCCAGUCAGAUUCUGGUGAAUCCGCGAAUUCUGCUGUAUAUCUC [C14U U25C U41A U60C] yielded a self-cleavage of 0.13. For UAACAGGGGGCCAUAGCAGAAGCGUACACGCCGCAGCCCCUGUCAGAUUCUGGUGAAUCUGCGAAUUCUGCUGUAUAUCUC [C14U U26A U31C], the self-cleavage was 0.67. UAACAGGGGGCCAUAGCAGAAGCGUCCACGUCGCAGCCCCUGUCAGACUCUGGUGGAUCUGCGAAUUCUGCUGUAGGUCUC [C14U U26C U48C A56G U76G A77G] gave a self-cleavage of 0.19. UAACAGGGGGCCAUAGCAGAAGCGUUCACGACGCAGCCCCUGUCAGAUUCUGGUGUAUCUGCGGAUUCUGCUGUAUAUCUC [C14U U31A A56U A64G] showed a self-cleavage of 0.28. For UAACAGGGGGCCAUAGCAGAAGCGUUCACGCCGCAGCCCCUGUCAGAUUCUGGUGAAUCUGCGUAUUCUGCUGUAUAUCUC [C14U U31C A64U], the self-cleavage was 0.25. UAACAGGGGGCCAUAGCAGAAGCGUUCACGCCGCAGCCCCUGUCAGAUUCUGGUGAAUCUGCGAGUUCUGCUGUAUAUCUC [C14U U31C A65G] showed a self-cleavage of 0.31. Work on UAACAGGGGGCCAUAGCAGAAGCGUUCACGCCGCAGCCCCUGCCAGAUUCUGGUGAAUCUGCGAAUUCUACUGUAUAUCUC [C14U U31C U43C G70A] yielded a self-cleavage of 0.19. For UAACAGGGGGCCAUAGCAGAAGCGUUCACGCCGCAGCCCCUGUCAGAUCCUGGUGAAUCUGCGAAUUCUGCUGUAUAUCUC [C14U U31C U49C], the self-cleavage was 0.98. For UAACAGGGGGCCAUAGCAGAAGCGUUCACGUCGCAGCCCCAGUCACAUUCUGGUGAAUCUGCGAAUUCUGCUGUAUACCUC [C14U U41A G46C U78C], the self-cleavage was 0.13. With UAACAGGGGGCCAUAGCAGAAGCGUUCACGUCGCAGCCCCAGUCAGAUCCCGGUGAACCUGCGAAUUCUGCUGUAUAUCUC [C14U U41A U49C U51C U58C] the self-cleavage was 0.06. For UAACAGGGGGCCAUAGCAGAAGCGUUCACGUCGCAGCCCCAGUCAGAUUCUGGUGAACCUGCGAAUUCUGCUGUAUAUCUC [C14U U41A U58C], the self-cleavage was 0.08. Work on UAACAGGGGGCCAUAGCAGAAGCGUUCACGUCGCAGCCCCCGUCAGAUUCUGGUGAAUCUGCGAAUUCCGCUGUAUAUCUC [C14U U41C U69C] yielded a self-cleavage of 0.46. For UAACAGGGGGCCAUAGCAGAAGCGUUCACGUCGCAGCCCCCGUCAGAUUCUGGUGAAUCUGCGAAUUCUGCUGUACAUCUC [C14U U41C U76C], the self-cleavage was 1.23. Variant UAACAGGGGGCCAUAGCAGAAGCGUUCACGUCGCAGCCCCUGACAGAUUCCGGUGAAUCUGCGAAUUCUGCUGUAUAUCUC [C14U U43A U51C] has a self-cleavage of 1. Variant UAACAGGGGGCCAUAGCAGAAGCGUUCACGUCGCAGCCCCUGCCAGAUUCUGGUGAUCCUGCGAAUUCUGCUGUAUAUCUC [C14U U43C A57U U58C] has a self-cleavage of 0.12. With UAACAGGGGGCCAUAGCAGAAGCGUUCACGUCGCAGCCCCUGCCAUAUUCUGGUGAAUCUGCGAAUUCUGCUGUAUGUCUC [C14U U43C G46U A77G] the self-cleavage was 0.1. UAACAGGGGGCCAUAGCAGAAGCGUUCACGUCGCAGCCCCUGUCAGACUCCGGUGAAUCUGCGAAUUCUGCAGUAUAUCUC [C14U U48C U51C U72A] gave a self-cleavage of 0.16. Work on UAACAGGGGGCCAUAGCAGAAGCGUUCACGUCGCAGCCCCUGUCAGACUCUGGUGAAUCUGCGAAUUCAGCUGUAUAUCUC [C14U U48C U69A] yielded a self-cleavage of 0.24. For UAACAGGGGGCCAUAGCAGAAGCGUUCACGUCGCAGCCCCUGUCAGAUACUGGUGAAUCCGCGAAUUCUGCUGUAUAUCUC [C14U U49A U60C], the self-cleavage was 0.24. Variant UAACAGGGGGCCAUAGCAGAAGCGUUCACGUCGCAGCCCCUGUCAGAUUCAGGUGAUUCUGCGGAUUCUGCUGUAUAUUUC [C14U U51A A57U A64G C79U] has a self-cleavage of 0.72. In the case of UAACAGGGGGCCAUAGCAGAAGCGUUCACGUCGCAGCCCCUGUCAGAUUCCGGUGAAUCUGCGAAUUCUGCGGUAUAUCUC [C14U U51C U72G], the self-cleavage is reported as 1.15. UAACAGGGGGCCAUAGCAGAAGCGUUCACGUCGCAGCCCCUGUCAGAUUCUGGCGAAUCUGCGGAUUCUGCUGUAUAUCCC [C14U U54C A64G U80C] gave a self-cleavage of 1.18. UAACAGGGGGCCAUAGCAGAAGCGUUCACGUCGCAGCCCCUGUCAGAUUCUGGCGAAUCUGCGAAUCCUGCUGUAUAUCUC [C14U U54C U67C] showed a self-cleavage of 0.37. Work on UAACAGGGGGCCAUAGCAGAAGCGUUCACGUCGCAGCCCCUGUCAGAUUCUGGUGAAUCAGCGAACUCUGCUGUAUAUCUC [C14U U60A U66C] yielded a self-cleavage of 0.14. UAACAGGGGGCCAUAGCAGAAGCGUUCACGUCGCAGCCCCUGUCAGAUUCUGGUGAAUCAGCGAACUCCGCUGUACAUCUC [C14U U60A U66C U69C U76C] gave a self-cleavage of 0.14. UAACAGGGGGCCAUAGCAGAAGCGUUCACGUCGCAGCCCCUGUCAGAUUCUGGUGAAUCUGCGAAUUCGGCCGUAAAUCUC [C14U U69G U72C U76A] gave a self-cleavage of 0.33. With UAACAGGGGGCCACCGCGGGAGCGUUCACGUCGCAGCCCCUGUCAGAUUCUGGUGAAUCUGCGAAUUCUGCUGUAUAUCUC [A15C A18G A20G] the self-cleavage was 0.06. UAACAGGGGGCCACCGCGGAAGCGUUCACGUCGCAGCCCUUGUCAGAUUCUGGUGAAUCUGCGAAUUCUGCUGUAUAUCUC [A15C A18G C40U] gave a self-cleavage of 0.24. With UAACAGGGGGCCACCGCGGAAGCGUUCACGUCGCAGCCCCUGUCAGAUCCUGGUGAAUCUGCGAAUUCUGCUGUAUAUCCC [A15C A18G U49C U80C] the self-cleavage was 0.1.
